{"source": "PubChem BioAssay AID1460", "about": "(National Center for Advancing Translational Sciences (NCATS), 2008)", "note": "Screen size: about 270,000 compounds; about 5,800 (2.1%) were called active. Inconclusive results, whose numbers are uncertain, are shown with a selection of clear calls. Calls follow the shape of the dose curve; as a rule, active = well fitted inhibition curve with a large enough effect; inconclusive = small, poorly fitted or top-dose-only effect; inactive = flat fitted curve, though single readings scatter. Potencies of inconclusive entries are doubtful fits and often do not repeat. % is scaled to controls: 0 for no effect and ±100 for the full control effect; potency is read from the fitted curve at half-maximal effect; tags tell the direction and shape of the fitted curve."}
{"molecular_target": "Microtubule-associated protein tau (Homo sapiens) (UniProt P10636)", "sequence (P10636 whole entry, looked up, the tested form may be a part)": "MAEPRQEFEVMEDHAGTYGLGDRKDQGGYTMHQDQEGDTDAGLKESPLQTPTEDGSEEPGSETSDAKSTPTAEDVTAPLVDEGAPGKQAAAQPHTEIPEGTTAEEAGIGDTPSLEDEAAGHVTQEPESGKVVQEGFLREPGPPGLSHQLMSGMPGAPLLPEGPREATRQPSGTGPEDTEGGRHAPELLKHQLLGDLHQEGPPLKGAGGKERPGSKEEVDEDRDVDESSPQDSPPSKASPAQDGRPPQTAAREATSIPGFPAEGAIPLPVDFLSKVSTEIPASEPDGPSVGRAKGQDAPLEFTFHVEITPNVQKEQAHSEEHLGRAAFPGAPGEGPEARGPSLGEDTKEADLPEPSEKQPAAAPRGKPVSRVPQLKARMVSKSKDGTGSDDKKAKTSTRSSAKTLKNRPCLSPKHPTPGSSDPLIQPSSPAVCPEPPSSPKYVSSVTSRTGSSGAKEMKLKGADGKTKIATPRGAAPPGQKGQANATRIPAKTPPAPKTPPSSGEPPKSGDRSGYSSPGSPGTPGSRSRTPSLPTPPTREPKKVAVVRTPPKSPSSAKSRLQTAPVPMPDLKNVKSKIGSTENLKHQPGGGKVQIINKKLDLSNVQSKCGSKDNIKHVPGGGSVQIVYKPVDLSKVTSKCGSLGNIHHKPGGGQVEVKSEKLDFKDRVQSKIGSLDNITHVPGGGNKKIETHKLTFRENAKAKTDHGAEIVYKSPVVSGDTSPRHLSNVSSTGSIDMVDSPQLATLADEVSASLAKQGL", "assay": "qHTS for Inhibitors of Tau Fibril Formation, Thioflavin T Binding; also: nearly all actives have a fitted effect of over 55% in size", "settings": "recombinant tau K18 P301L (four-repeat tau fragment), heparin-induced fibrillization, ThT fluorescence; series mostly up to 57.4 µM; activity, negative = inhibition: at the top concentration", "outline": "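Tau K18 P301L fragment (15 uM unlabeled plus 0.24 uM Alexa 594-labeled) in 100 mM sodium acetate pH 7 with compound, fibrillization induced by 20 uM heparin for 6 hr at 37 C. Thioflavin T (30 uM) added, fluorescence read after 1 hr (ex 450, em 510 nm).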"}
{"smiles": "COc1cc(C(=O)NCCc2c[nH]c3ccccc23)ccc1OCc1c(C)noc1C", "Potency": "inconclusive: 10 µM [inhibitor, partial curve]"}
{"smiles": "Cc1cc(N)ccc1N1CCCC1", "Potency": "active: 7.08 µM"}
{"smiles": "CC1(C)CCSC(/C=C/c2ccccc2)=N1", "Potency": "inconclusive: 10 µM [inhibitor, partial curve]"}
{"smiles": "O=C(Nc1ccc2c(c1)OCO2)c1n[nH]c(=O)c2ccccc12", "Potency": "inconclusive: 4.47 µM [inhibitor, partial curve]"}
{"smiles": "COc1ccc(-c2oc3ncnc(NCCCN4CCOCC4)c3c2-c2ccc(OC)cc2)cc1", "Potency": "inconclusive: 35.5 µM [inhibitor, partial curve]"}
{"smiles": "Cc1ccccc1NC(=O)CSc1nc(N)c(C#N)c(-c2cccs2)c1C#N", "Potency": "inconclusive: 17.8 µM [activator, partial curve, poor fit]"}
{"smiles": "COc1ccc(Cl)cc1NC(=O)C(C)Sc1nncn1C", "note": "(configuration not stated)", "Potency": "inconclusive: 31.6 µM [inhibitor, single point]"}
{"smiles": "CCCCNC(=O)Cn1c(=O)cc(C)c2c(C)nn(-c3ccc(CC)cc3)c21", "activity, negative = inhibition": "inactive: 9.27%"}
{"smiles": "O=C(NN1C(=O)c2ccccc2NC1c1ccc([N+](=O)[O-])o1)c1ccc([N+](=O)[O-])cc1", "note": "(configuration not stated)", "Potency": "active: 3.16 µM"}
{"smiles": "C/C(=N\\NC(=S)Nc1ccc(C)cc1)c1cc2ccccc2o1", "Potency": "inconclusive: 2.82 µM [inhibitor, partial curve]"}
{"smiles": "O=C(N/N=C/c1cc(Br)cc(Br)c1O)c1cccc(S(=O)(=O)N2CCOCC2)c1", "Potency": "inconclusive: 3.55 µM [inhibitor, full curve]"}
{"smiles": "CCOC(=O)c1sc(N)c(C(=O)OCC)c1C", "Potency": "inconclusive: 11.2 µM [inhibitor, partial curve]"}
{"smiles": "CCCN(CCC)C(=O)Cn1c(=O)n(-c2ccc(C)cc2)c(=O)c2ccc(C(=O)NCc3ccccc3Cl)cc21", "activity, negative = inhibition": "inactive: -11%"}
{"smiles": "CCc1sc(Nc2ccc(C)cc2Br)nc1-c1cc2cccc(OC)c2oc1=O", "activity, negative = inhibition": "inactive: -8.56%"}
{"smiles": "Cc1ccc2nc(NC(=O)C3CCN(S(=O)(=O)c4cccs4)CC3)sc2c1", "Potency": "inconclusive: 15.8 µM [activator, partial curve]"}
{"smiles": "COC(=O)c1cccc(NC(=O)CSc2nc(O)c(-c3ccccc3)c(=O)[nH]2)c1", "Potency": "inconclusive: 28.2 µM [inhibitor, single point]"}
{"smiles": "O=C(CSc1nnc(CN2CCOCC2)n1-c1ccccc1)Nc1ccc(Cl)cc1", "activity, negative = inhibition": "inactive: 1.18%"}
{"smiles": "O=C1c2ccccc2C(=O)N1CCCSc1nc2ccccc2o1", "activity, negative = inhibition": "inactive: -13.8%"}
{"smiles": "O=c1cc(CO)oc(C(Nc2ccccn2)c2cccc(F)c2)c1O", "note": "(configuration not stated)", "Potency": "inconclusive: 17.8 µM [inhibitor, single point]"}
{"smiles": "COc1cc(/C=N/N=C(/C(=O)c2ccccc2)c2ccccc2)cc(OC)c1O", "Potency": "inconclusive: 15.8 µM [inhibitor, partial curve]"}
{"smiles": "CCOc1ccc(NC(=O)Nc2cc(C(C)C)ccc2C)cc1", "activity, negative = inhibition": "inactive: -4.95%"}
{"smiles": "Cc1ccc(C(=O)O)cc1NC(=S)NC(=O)c1ccc([N+](=O)[O-])c(C)c1", "Potency": "inconclusive: 14.1 µM [inhibitor, partial curve]"}
{"smiles": "O=C(O)CCCC(=O)Nc1ccc(N=Nc2ccccc2)cc1", "Potency": "inconclusive: 15.8 µM [inhibitor, partial curve]"}
{"smiles": "COc1ccc(/C=N/n2cnn(Cc3ccccc3Cl)c2=S)cc1", "activity, negative = inhibition": "inactive: -12.1%"}
{"smiles": "COc1ccc(NS(=O)(=O)c2ccc(SC)cc2)c(OC)c1", "activity, negative = inhibition": "inactive: -11.1%"}
{"smiles": "CC1CCN(C(c2ccc(N(C)C)cc2)c2nnnn2Cc2ccccc2)CC1", "note": "(configuration not stated)", "Potency": "inconclusive: 20 µM [inhibitor, single point]"}
{"smiles": "CCN(CC)S(=O)(=O)c1ccc(C(=O)NCc2n[nH]c(=S)n2-c2ccccc2OC)cc1", "activity, negative = inhibition": "inactive: -3.29%"}
{"smiles": "COc1ccc(NC(=O)c2c(NCc3cccc(OC)c3)sc3c2CCC3)cc1", "Potency": "inconclusive: 39.8 µM [inhibitor, single point]"}
{"smiles": "COc1cccc(Nc2cc(-c3ccccc3)nc(C)n2)c1", "Potency": "inconclusive: 25.1 µM [inhibitor, single point]"}
{"smiles": "COc1ccc(S(=O)(=O)N2CCC(CN3C(=O)c4cccc5cccc(c45)C3=O)CC2)cc1", "activity, negative = inhibition": "inactive: -3.56%"}
{"smiles": "Cc1cccc(C)c1NC(=O)CSCC(=O)c1ccc(O)c(O)c1", "Potency": "inconclusive: 15.8 µM [inhibitor, partial curve]"}
{"smiles": "C[C@@H](C(=O)N[C@@H](Cc1ccccc1)C(=O)O)n1nnc2ccccc2c1=O", "activity, negative = inhibition": "inactive: 5.84%"}
{"smiles": "Cc1ccc(C)c(N2CCN(C(=O)c3cc(S(=O)(=O)N4CCCC4)c[nH]3)CC2)c1", "activity, negative = inhibition": "inactive: -10.3%"}
{"smiles": "CC(C)(C)c1nnc(NC(=O)CN2C(=O)C3C4C=CC(C4)C3C2=O)s1", "note": "(configuration not stated)", "Potency": "inconclusive: 39.8 µM [inhibitor, single point]"}
{"smiles": "CC(NC(=O)C1CCCCC1)C(=O)NC1=NCCS1", "note": "(configuration not stated)", "activity, negative = inhibition": "inactive: -2.7%"}
{"smiles": "CN=c1scc(-c2cccs2)n1/N=C/c1ccccc1O", "activity, negative = inhibition": "inactive: 10.6%"}
{"smiles": "O=C(CNC(=O)c1ccccc1O)N/N=C/c1ccccn1", "activity, negative = inhibition": "inactive: 8.06%"}
{"smiles": "CC1CCC(C(C)C)C2=C1C(C#N)(C#N)C(C#N)(C#N)C(c1ccccc1)N2", "note": "(configuration not stated)", "Potency": "active: 22.4 µM"}
{"smiles": "CC(C)(C)c1ccccc1OCCOCCN1CCCCCC1", "Potency": "inconclusive: 11.2 µM [inhibitor, partial curve]"}
{"smiles": "COc1ccc(Cn2c(C(=O)O)c(CNC3CCC(C)CC3)c3ccc(C)cc32)cc1", "note": "(configuration not stated)", "activity, negative = inhibition": "inactive: -6.31%"}
{"smiles": "COc1cc2nc(NCc3ccccc3Cl)n3nc(-c4cccnc4)nc3c2cc1OC", "activity, negative = inhibition": "inactive: -9.55%"}
{"smiles": "CCOc1ccc(Nc2c(S(=O)(=O)c3ccc(C)cc3)cnc3ccc(OC)cc23)cc1", "Potency": "inconclusive: 20 µM [inhibitor, partial curve]"}
{"smiles": "CC(=O)c1c(OC(=O)c2cccc(Cl)c2)c2ccccc2n1C", "Potency": "inconclusive: 31.6 µM [inhibitor, single point]"}
{"smiles": "COC(=O)c1ccc(NC(=O)N2CCc3c([nH]c4ccccc34)C2c2ccc(C)cc2)cc1", "note": "(configuration not stated)", "activity, negative = inhibition": "inactive: -0.715%"}
{"smiles": "COc1ccc(-c2coc3cc(O)ccc3c2=O)c(O)c1O", "Potency": "active: 10 µM"}
{"smiles": "CCOc1ccccc1C1C(C#N)=C(N)Nc2onc(-c3ccccc3)c21", "note": "(configuration not stated)", "Potency": "inconclusive: 25.1 µM [inhibitor, partial curve, poor fit]"}
{"smiles": "CCCCCC(=O)Cc1cc(O)cc(O)c1C(=O)Oc1cc(CC(=O)CCCCC)c(C(=O)O)c(OC)c1", "activity, negative = inhibition": "inactive: -7.94%"}
{"smiles": "N#Cc1ccsc1NC(=O)COC(=O)c1ccc2ccccc2c1", "activity, negative = inhibition": "inactive: 0.2%"}
{"smiles": "Cc1ccc2nc(-c3ccc(NC(=O)Cc4cccs4)cc3)[nH]c2c1", "Potency": "inconclusive: 7.94 µM [activator, full curve]"}
{"smiles": "O=C(NCC(c1cccnc1)N1CCOCC1)C(=O)Nc1cccc(Cl)c1", "note": "(configuration not stated)", "activity, negative = inhibition": "inactive: 2.56%"}
{"smiles": "Cc1cc(C)c2[nH]c(=O)c(CN(Cc3ccco3)C(=O)c3cccs3)cc2c1", "Potency": "inconclusive: 20 µM [inhibitor, single point]"}
{"smiles": "O=C(N/N=C/c1cccs1)c1cncc(Br)c1", "Potency": "inconclusive: 44.7 µM [inhibitor, single point]"}
{"smiles": "Cn1ccnc1C(=O)c1cccc([N+](=O)[O-])c1", "activity, negative = inhibition": "inactive: -3.79%"}
{"smiles": "COCCn1c(N)c(C(=O)Nc2sc3c(c2C(=O)OC)CCCC3)c2nc3ccccc3nc21", "Potency": "inconclusive: 28.2 µM [inhibitor, partial curve]"}
{"smiles": "CC(/C=C/c1ccco1)=N\\NC(=O)c1cccc(Cl)c1", "Potency": "inconclusive: 28.2 µM [inhibitor, single point]"}
{"smiles": "CCn1c2ccccc2c2nc3cc(S(=O)(=O)N4CCOCC4)ccc3nc21", "Potency": "active: 25.1 µM"}
{"smiles": "CCN(CC)CCNC(=O)CCCCn1c(=S)[nH]c2c([nH]c3ccc(OC)cc32)c1=O", "Potency": "inconclusive: 20 µM [inhibitor, partial curve]"}
{"smiles": "Nc1nnc(-c2ccc(Cl)c([N+](=O)[O-])c2)s1", "Potency": "inconclusive: 15.8 µM [inhibitor, partial curve, poor fit]"}
{"smiles": "CCOc1ccc(C(=O)Nc2cccc(-c3cc4ccccc4oc3=O)c2)cc1[N+](=O)[O-]", "activity, negative = inhibition": "inactive: -10.4%"}
{"smiles": "Nn1c(SC/C=C/c2ccccc2)nnc1-c1ccco1", "Potency": "inconclusive: 4.47 µM [inhibitor, partial curve]"}
{"smiles": "Cc1ccc(C2=CSC3=NNC4(CCCCC4)NN23)cc1", "Potency": "inconclusive: 17.8 µM [inhibitor, partial curve]"}
{"smiles": "C=CCn1c(C)c(C(C)=O)cc(NC(=O)c2ccccc2)c1=O", "activity, negative = inhibition": "inactive: -2.39%"}
{"smiles": "COCCOC(=O)C(C#N)c1nc2ccccc2nc1N1CCCC1", "note": "(configuration not stated)", "Potency": "inconclusive: 35.5 µM [inhibitor, single point]"}
{"smiles": "CCc1ccc(C2=NNC(=Nc3c(C)n(C)n(-c4ccccc4)c3=O)SC2)cc1", "Potency": "inconclusive: 25.1 µM [inhibitor, single point]"}
{"smiles": "CC(=O)c1cccc(NC(=S)NC(=O)c2ccccc2C)c1", "Potency": "inconclusive: 3.55 µM [inhibitor, single point]"}
{"smiles": "CN(C)S(=O)(=O)c1cccc(NC(=O)COC(=O)c2cccn2C)c1", "activity, negative = inhibition": "inactive: -4.41%"}
{"smiles": "Cc1ccc(-c2nc(CS(=O)CC(=O)NCc3ccccn3)c(C)o2)cc1", "note": "(configuration not stated)", "Potency": "inconclusive: 20 µM [inhibitor, partial curve]"}
{"smiles": "CCOc1ccc(NC(=O)CSc2nc3nc(C)c(Cc4ccccc4)c(C)n3n2)cc1", "Potency": "inconclusive: 2.82 µM [inhibitor, partial curve]"}
{"smiles": "COc1ccc(/C=C(\\C#N)c2nc(-c3ccc(Cl)c(Cl)c3)cs2)cc1OC", "Potency": "inconclusive: 10 µM [inhibitor, partial curve]"}
{"smiles": "CC(C)(C)NC(=O)Cn1c(SCC(=O)N2CCCCCC2)nc2ccccc21", "activity, negative = inhibition": "inactive: -0.322%"}
{"smiles": "COc1ccccc1CNC(=O)C1CCN(c2nn3c(=O)cc(C)nc3s2)CC1", "Potency": "inconclusive: 5.01 µM [inhibitor, full curve]"}
{"smiles": "CC(=O)Nc1ccc(Nc2c3c4c(cccc4n(C)c2=O)C(=O)c2ccccc2-3)cc1", "Potency": "inconclusive: 2.82 µM [inhibitor, full curve]"}
